Values joined by “and” are separate entries in the source; they are usually repeats but may differ in a detail not shown here. Equal values may be shown once. About 64,000 (15%) of roughly 420,000 compounds were called active. This list was built around the results that the source calls inconclusive (neither active nor inactive); the mix of calls is not that of the screen. Calls come from the whole dose curve; as a rule, active = well fitted inhibition curve with a large enough effect; inconclusive = small, poorly fitted or top-dose-only effect; inactive = flat fitted curve, though single readings scatter. Potencies beside an inconclusive call are fits to weak or partial responses and may not hold up. More than one record can exist for a structure, and the calls need not agree.
Assay: qHTS for Inhibitors of human tyrosyl-DNA phosphodiesterase 1 (TDP1): qHTS in cells in absence of CPT; note: nearly all actives have a fitted effect of over 55% in size
Details: DT40 Tdp1-/- hTDP1 cells, no CPT, ATP luminescence, 48 h; activity change, negative = growth inhibition: at 46.2 µM (top of the series)
Summary of the method: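 No-CPT arm: Tdp1-/-;hTDP1 DT40 cells (400/well) plus compounds, incubated ≥48 hr at 37 °C. Readout CellTiter-Glo luminescence.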
% is set by controls: 0 for no effect and ±100 for the full control effect; potency is the fitted concentration of half-maximal effect; tags give direction and shape of the fitted curve.

| SMILES | Potency | activity change, negative = growth inhibition |
| --- | --- | --- |
| Cc1cccc(C(=O)OC(C)C(=O)N2CCN(Cc3ccccc3)CC2)c1 (stereo not given) | inconclusive: 29.1 µM [inhibitor, single point] |  |
| COCCN(C(=O)Cc1coc2cc(C)c(C)cc12)c1c(N)n(Cc2ccccc2)c(=O)[nH]c1=O |  | inactive: 3.15% |
| Cc1ccc(-c2noc(CCC(=O)NCCc3ccccc3Cl)n2)cc1 | inconclusive: 16.4 µM [inhibitor, single point] |  |
| O=[N+]([O-])c1ccc(O)c(/C=N/n2c(CO)nc3ccccc32)c1 |  | inactive: -6.69% |
| O=C(CCCSc1ccc(Cl)cc1)Nc1cc(S(=O)(=O)N2CCOCC2)ccc1O | active: 23.1 µM |  |
| CC(=O)Nc1c(C)nn(-c2ccccc2)c1N1CCC(C(=O)NCc2ccccc2Cl)CC1 | inconclusive: 16.4 µM [inhibitor, single point] |  |
| Cc1cccc(N2C(=S)NC3c4cc(Cl)ccc4OC2(C)C3C(=O)N(C)C)c1 (stereo not given) | inconclusive: 29.1 µM [inhibitor, single point] |  |
| O=C(CCn1nc(-c2ccc(Cl)cc2)ccc1=O)NCCc1ccccc1 | inconclusive: 23.1 µM [inhibitor, single point] |  |
| O=C(O)c1cc2nc(-c3ccccc3)cc(-c3ccccc3)n2n1 |  | inactive: 11.6% |
| Cc1ccc(S(=O)Cc2nc(-c3ccc(C(=O)NCc4cccc(C)c4)cc3)oc2C)cc1 (stereo not given) | inconclusive: 3.26 µM [inhibitor, single point] |  |
| CC1(C)CC(=O)C=C(NCC(O)c2ccccc2)C1 (stereo not given) | inconclusive: 6.51 µM [inhibitor, single point] |  |
| CC1(C)CC(=O)C2=C(C1)NC1=C(C(=O)c3ccccc31)C2c1ccc(Cl)cc1 (stereo not given) | inconclusive: 29.1 µM [inhibitor, single point] |  |
| CCN(CC)C(=O)C1CCCN(Cc2cccc(Cl)c2)C1 (stereo not given) | inconclusive: 4.61 µM [inhibitor, partial curve] |  |
| COc1ccc(CCn2c(C)cc3c(c2=O)C(c2ccncc2)C(C#N)=C(N)O3)cc1OC (stereo not given) | inconclusive: 0.651 µM [inhibitor, full curve, poor fit] |  |
| CC(=O)NCCNc1cc(-c2ccccc2CN(C)C)ncn1 |  | inactive: -3.52% |
| CN(CC(=O)Nc1cccc2ccccc12)C(=O)/C=C/c1cccs1 |  | inactive: -37.1% |
| Cc1cc(C)cc(Oc2ccc(S(=O)(=O)N3CCN(C)CC3)cn2)c1 | inconclusive: 29.1 µM [inhibitor, single point] |  |
| Cc1ccc(C)c(S(=O)(=O)NC(C)CCc2ccccc2)c1 (stereo not given) | inconclusive: 16.4 µM [inhibitor, single point] |  |
| CCOc1cc(C(C(=O)NCC2CCCO2)N(C(=O)Cn2nnc3ccccc32)c2ccccc2OC)ccc1O (stereo not given) |  | inactive: -1.09% |
| Cn1c(=O)c2c(ncn2CC(COCc2ccccc2)OCc2ccccc2)n(C)c1=O (stereo not given) | inconclusive: 20.6 µM [inhibitor, single point] |  |
| C[C@H](NC(=O)c1[nH]cnc1C(=O)Nc1ccc(CNC(=O)OC(C)(C)C)cc1)C(=O)OCc1ccccc1 | active: 18.4 µM |  |
| COc1ccc(C)cc1N1CC(C(=O)Nc2ccccc2N2CCCCC2)CC1=O (stereo not given) | active: 20.6 µM |  |
| Cc1c(C(=O)NCc2ccc(C(F)(F)F)cc2)sc(=O)n1Cc1ccc(S(=O)(=O)N(C)C)cc1 | active: 23.1 µM |  |
| C/C(=N\NC(=O)c1ccc(F)cc1)c1cccc(NC(=O)c2cccc(F)c2)c1 | inconclusive: 14.6 µM [inhibitor, partial curve] |  |

| SMILES | Potency | activity change, negative = growth inhibition |
| --- | --- | --- |
| C=CCc1cccc(/C=N/NC(=O)CNc2ccccc2)c1O | active: 5.17 µM |  |
| CC(c1ccco1)N(C(=O)CSc1ccc(Br)cc1)c1ccccn1 (stereo not given) | inconclusive: 23.1 µM [inhibitor, single point] |  |
| Cn1cccc1C(=O)N1CCC2(CCN(C(=O)Nc3ccccc3)CC2)CC1 | inconclusive: 29.1 µM [inhibitor, single point] |  |
| CCOC(=O)C1=C(CS(=O)(=O)c2ccc(OC)c(Cl)c2)NC(=O)NC1c1cccc(OC)c1 (stereo not given) | inconclusive: 20.6 µM [inhibitor, single point] |  |
| Cc1cccc(NC(=O)c2sc3nc4c(c(-c5ccco5)c3c2N)CCC4)c1 | active: 25.9 µM |  |
| CCCN1C(=O)c2ccccc2NC1c1ccc(Cl)c(Cl)c1 (stereo not given) | inconclusive: 29.1 µM [inhibitor, single point] |  |
| CC1=[N+](C)N(c2ccccc2)C(=O)C1N=Cc1c(Cl)cccc1Cl (stereo not given) |  | inactive: 13% |
| Cc1cc2c(cc1S(=O)(=O)NC1CCCCC1C)OCC(=O)N2 (stereo not given) |  | inactive: -18.5% |
| COc1ccc(C(=O)N2c3cc4c(cc3C(C)=CC2(C)C)OCO4)cc1 | inconclusive: 29.1 µM [inhibitor, single point] |  |
| COc1ccc(-c2cc(-c3ccccc3)nc(SCC(=O)Nc3ccccc3F)c2C#N)cc1 | inconclusive: 29.1 µM [inhibitor, single point] |  |
| COc1cccc(CC(=O)Nc2ccc(-c3csc(C)n3)cc2)c1 | inconclusive: 29.1 µM [inhibitor, single point] |  |
| COCC(=O)N/N=C\c1ccc(OC/C=C/c2ccccc2)c(OC)c1 | inconclusive: 29.1 µM [inhibitor, single point] |  |
| CC(C)(C)[C@H]1CCC(=O)N([C@H](CSc2ccccc2)Cc2ccccc2)CC1 | inconclusive: 22.4 µM [inhibitor, single point] and inconclusive: 29.1 µM [inhibitor, single point] |  |
| O=C(CSc1cn(CCNC(=O)c2ccccc2F)c2ccccc12)NCC1CCCO1 (stereo not given) | inconclusive: 29.1 µM [inhibitor, single point] |  |
| COC(=O)C1(Cc2cc(-c3ccccc3)no2)CCN(C(=O)OC(C)(C)C)CC1 | inconclusive: 29.1 µM [inhibitor, single point] |  |
| COc1ccccc1CN1CCC2(CC1)CCN(C(C)=O)CC2 |  | inactive: 26.4% |
| Cc1onc(-c2ccccc2Cl)c1C(=O)N1CCN(c2ccccc2)CC1 | inconclusive: 18.4 µM [inhibitor, single point] |  |
| Cc1ccc(S(=O)(=O)N2CCC(=O)N([C@H](COCc3cccc(Cl)c3)Cc3ccccc3)CC2)cc1 | active: 20.6 µM |  |
| Cc1ccc(-n2c(=S)[nH]c3nc4c(cc3c2=O)COC(C)(C)C4)cc1 |  | inactive: -21.5% |
| Clc1cccc(Cl)c1NC1=NCCN1 | inactive |  |
| COc1ccc2[nH]cc(CCNc3ccnc(-c4cccc(C#N)c4)n3)c2c1 | inconclusive: 29.1 µM [inhibitor, single point] |  |
| COc1ccc(Br)c(C(=O)OCC(=O)N2CCC(Cc3ccccc3)CC2)c1 | inconclusive: 29.1 µM [inhibitor, single point] |  |
| NC1=NC(c2ccc(Cl)cc2)N(c2ccc(S(N)(=O)=O)cc2)C(N)=N1 (stereo not given) |  | inactive: -5.09% |
| CCCC(=O)c1ccc(N2CCN(C(=O)c3cccs3)CC2)c(F)c1 | inconclusive: 20.6 µM [inhibitor, partial curve] |  |

| SMILES | Potency | activity change, negative = growth inhibition |
| --- | --- | --- |
| Cc1ccc(C)c(NC(=O)C2CCCN(c3ncnc4onc(C)c34)C2)c1 (stereo not given) | active: 10.3 µM |  |
| COC(=O)C1=C(C)Nc2nc3ccccc3n2C1c1ccccc1F (stereo not given) | inconclusive: 18.4 µM [inhibitor, partial curve] |  |
| COc1ccc2oc(=N)c(C(=O)NCc3ccccc3)cc2c1 | inconclusive: 29.1 µM [inhibitor, single point] |  |
| O=C(CSc1cn(CC(=O)N2CCCCC2)c2ccccc12)Nc1ccccc1 | inconclusive: 23.1 µM [inhibitor, single point] |  |
| COc1ccc(OC)c(C2=NS(=O)(=O)N(C)C(C(=O)Nc3ccc(F)cc3F)=C2)c1 | active: 7.31 µM |  |
| CCN(CC(=O)Nc1ccc(OC)cc1)C(=O)c1ccc(NS(=O)(=O)c2ccc(C(C)=O)cc2)cc1 |  | inactive: -24.9% |
| Cc1nn(C)c(C)c1Sc1ccc(Br)cc1 |  | inconclusive: -31.6% [inhibitor] |
| Cc1cc(OCC(=O)NCc2cccnc2)c2c(C)c(Cc3ccccc3)c(=O)oc2c1 | inconclusive: 25.9 µM [inhibitor, single point] |  |
| S=C1NCN(Cc2cccnc2)CN1 |  | inactive: 13.8% |
| CCOC(=O)C1=CN(Cc2cccc(F)c2)S(=O)(=O)N(CC)C1c1ccc(Br)cc1F (stereo not given) | inconclusive: 18.4 µM [inhibitor, single point] |  |
| COc1cccc(CNC(=O)c2cccc(-n3c(C)nc4cccnc43)c2)c1OC | inconclusive: 29.1 µM [inhibitor, single point] |  |
| COc1ccc(OC)c(S(=O)(=O)NCCS(=O)(=O)N2CCN(c3ccccc3)CC2)c1 | inactive and active: 16.4 µM |  |
| CCOC(=O)CSc1nc(C2CC2)cc(-c2ccc(Cl)cc2)c1C#N | inconclusive: 23.1 µM [inhibitor, single point] |  |
| CCN(CC(=O)NC1CCS(=O)(=O)C1)C(C)C(=O)Nc1ccc(F)cc1 (stereo not given) |  | inactive: -5.28% |
| O=C(Cn1c(=O)n(-c2ccccc2)c(=O)c2c3c(sc21)CCCC3)Nc1ccc(F)cc1F | inconclusive: 7.31 µM [inhibitor, partial curve] |  |
| COc1ccc(Nc2oc(COc3ccccc3F)nc2C#N)cc1 | active: 13 µM |  |
| Cc1cc(C(=O)NC(CC(C)C)C(=O)O)cc(C)c1[N+](=O)[O-] (stereo not given) |  | inactive: 8.32% |
| NC(=O)CCn1nc(-c2ccccc2)c2ccccc2c1=O |  | inactive: -21.7% |
| Cc1ccc(-c2nnc3ccc(SCC(=O)Nc4cc(C)on4)nn23)cc1 |  | inconclusive: -31% [inhibitor] |
| Cc1oc(-c2ccccc2NC(=O)C2CCCO2)nc1CNC(=O)c1cc(F)c(F)cc1F (stereo not given) |  | inactive: -1.38% |
| COc1ccc(NC(=O)CS(=O)(=O)c2ccc(F)cc2)cc1 |  | inactive: 15.8% |
| CC(=O)c1cccc(N(CC(=O)Nc2ccc(F)cc2F)S(C)(=O)=O)c1 |  | inactive: -4.51% |

— PubChem BioAssay AID686978 (National Center for Advancing Translational Sciences (NCATS), 2013)
